# Source: the supplement of paper PMC10037445
# “And” between values parts separate entries of the source, which are not always exact repeats. Equal entries are not always repeated. Over roughly 2,900 compounds, “NF-kB SEAP reporter activity, fold change vs agonist alone” has its median near 0.99; the highest 2% begin near 2.6. The list shows a part of the results.
# What was measured:
# RAW-Dual [1] = assay: NF-kB SEAP reporter activity, fold change vs agonist alone; higher = enhanced NF-kB activity; conditions: library stock concentration (final ~1000-fold dilution): 10 mM
# Summary of the method: (§1)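 After 50 nL of library stock was delivered by pin tool to RAW-Dual macrophages (50,000 cells/well, DMEM, 384-well plates), a PRR agonist was added 1 h later and the plates were kept at 37 °C, 5% CO2. Twenty hours later, IRF was read from supernatant by QuantiLuc luminescence and NF-κB by QuantiBlue absorbance at 620 nm. Reporter activity is stated as fold change over agonist-alone wells. Wells with IncuCyte confluency under 70% of agonist controls in both mask sets were counted as cytotoxic.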
# RAW-Dual [2] = assay: NF-kB SEAP reporter activity, fold change vs agonist alone; cytotoxicity flag (confluency mask): not cytotoxic; higher = enhanced NF-kB activity
# Summary of the method: as §1
# RAW-Dual [3] = assay: NF-kB SEAP reporter activity, fold change vs agonist alone; cytotoxicity flag (confluency mask): cytotoxic (confluency <70% of control); higher = enhanced NF-kB activity
# Summary of the method: as §1
# [4] = cytotoxicity flag (confluency mask): not cytotoxic, agonist: Imiquimod (TLR7) […]
# [5] = cytotoxicity flag (confluency mask): not cytotoxic, agonist: MPLA (TLR4) […]
# [6] = agonist: ODN 1826 (TLR9) 0.5 ug/mL
# [7] = agonist: Pam2CSK4 (TLR2/6) 0.1 ug/mL
# [8] = agonist: Pam3CSK4 (TLR2/1) 0.1 ug/mL
# [9] = cytotoxicity flag (confluency mask): cytotoxic (confluency <70% of control), agonist: Imiquimod (TLR7) […]
# [10] = cytotoxicity flag (confluency mask): cytotoxic (confluency <70% of control), agonist: MPLA (TLR4) […]
smiles,measurement,setting,value
CCCc1nn(C)c2c(=O)[nH]c(-c3cc(S(=O)(=O)N4CCN(C)CC4)ccc3OCC)nc12.O=C(O)CC(O)(CC(=O)O)C(=O)O,NF-kB SEAP reporter activity,RAW-Dual [1]; [4],1.19
same,NF-kB SEAP reporter activity,RAW-Dual [1]; [5],0.852
CC(C)NCC(O)COc1ccc(CCOCC2CC2)cc1 (stereo unspecified) (library stock concentration (final ~1000-fold dilution): 10 mM),NF-kB SEAP reporter activity,RAW-Dual [2]; agonist: LPS (TLR4) 0.1 ug/mL,0.893 and 0.877
same,NF-kB SEAP reporter activity,RAW-Dual [2]; [6],0.774 and 0.772
same,NF-kB SEAP reporter activity,RAW-Dual [2]; [7],0.942 and 0.939
same,NF-kB SEAP reporter activity,RAW-Dual [2]; [8],1.28 and 0.997
Cc1c(C(=O)NN2CCCCC2)nn(-c2ccc(Cl)cc2Cl)c1-c1ccc(I)cc1 (library stock concentration (final ~1000-fold dilution): 10 mM),NF-kB SEAP reporter activity,RAW-Dual [2]; agonist: LPS (TLR4) 0.1 ug/mL,1.36
same,NF-kB SEAP reporter activity,RAW-Dual [2]; [6],0.337
same,NF-kB SEAP reporter activity,RAW-Dual [2]; [7],0.793
same,NF-kB SEAP reporter activity,RAW-Dual [2]; [8],0.542
Cc1c(C(=O)NN2CCCCC2)nn(-c2ccc(Cl)cc2Cl)c1-c1ccc(I)cc1,NF-kB SEAP reporter activity,RAW-Dual [1]; [4],0.672
same,NF-kB SEAP reporter activity,RAW-Dual [1]; [5],1.01
CCc1nc(N)nc(N)c1-c1ccc(Cl)cc1,NF-kB SEAP reporter activity,RAW-Dual [1]; [4],0.734
same,NF-kB SEAP reporter activity,RAW-Dual [1]; [5],1.23
CCc1nc(N)nc(N)c1-c1ccc(Cl)cc1 (library stock concentration (final ~1000-fold dilution): 10 mM),NF-kB SEAP reporter activity,RAW-Dual [2]; agonist: LPS (TLR4) 0.1 ug/mL,1.51
same,NF-kB SEAP reporter activity,RAW-Dual [2]; [6],1.29
same,NF-kB SEAP reporter activity,RAW-Dual [2]; [7],1.11
same,NF-kB SEAP reporter activity,RAW-Dual [2]; [8],1.04
C=C1C(=O)OC2C1CCC(=C)C1CCC(=C)C12 (stereo unspecified),NF-kB SEAP reporter activity,RAW-Dual [1]; [9],0.468
same,NF-kB SEAP reporter activity,RAW-Dual [1]; [10],0.272
same,NF-kB SEAP reporter activity,RAW-Dual [1]; [4],0.25
same,NF-kB SEAP reporter activity,RAW-Dual [1]; [5],0.219
C=C1C(=O)OC2C1CCC(=C)C1CCC(=C)C12 (stereo unspecified) (library stock concentration (final ~1000-fold dilution): 10 mM),NF-kB SEAP reporter activity,RAW-Dual [2]; agonist: LPS (TLR4) 0.1 ug/mL,0.458
same,NF-kB SEAP reporter activity,RAW-Dual [2]; [6],0.224
same,NF-kB SEAP reporter activity,RAW-Dual [2]; [7],0.0695
same,NF-kB SEAP reporter activity,RAW-Dual [2]; [8],0.13
same,NF-kB SEAP reporter activity,RAW-Dual [3]; agonist: LPS (TLR4) 0.1 ug/mL,0.209
same,NF-kB SEAP reporter activity,RAW-Dual [3]; [6],0.244
same,NF-kB SEAP reporter activity,RAW-Dual [3]; [7],0.101
same,NF-kB SEAP reporter activity,RAW-Dual [3]; [8],0.183
O=c1cc(CO)occ1O,NF-kB SEAP reporter activity,RAW-Dual [1]; [5],1.03
O=c1cc(CO)occ1O (library stock concentration (final ~1000-fold dilution): 10 mM),NF-kB SEAP reporter activity,RAW-Dual [2]; agonist: LPS (TLR4) 0.1 ug/mL,1.08
same,NF-kB SEAP reporter activity,RAW-Dual [2]; [6],0.927
same,NF-kB SEAP reporter activity,RAW-Dual [2]; [7],1.08
same,NF-kB SEAP reporter activity,RAW-Dual [2]; [8],1.47
Cc1cccc(-c2[nH]c(C(C)(C)C)nc2-c2ccc3c(c2)OCO3)n1 (library stock concentration (final ~1000-fold dilution): 10 mM),NF-kB SEAP reporter activity,RAW-Dual [2]; agonist: LPS (TLR4) 0.1 ug/mL,1.76
same,NF-kB SEAP reporter activity,RAW-Dual [2]; [6],1.05
same,NF-kB SEAP reporter activity,RAW-Dual [2]; [7],0.839
same,NF-kB SEAP reporter activity,RAW-Dual [2]; [8],1.11
Cc1cccc(-c2[nH]c(C(C)(C)C)nc2-c2ccc3c(c2)OCO3)n1,NF-kB SEAP reporter activity,RAW-Dual [1]; [4],1.04
same,NF-kB SEAP reporter activity,RAW-Dual [1]; [5],1.49
CCn1c(C(=O)N(C2CC2)C2CC2)cc2c3c(ncn3C)c(Nc3cc(C)n(C)n3)nc21,NF-kB SEAP reporter activity,RAW-Dual [1]; [4],1.02
same,NF-kB SEAP reporter activity,RAW-Dual [1]; [5],1.2
CCn1c(C(=O)N(C2CC2)C2CC2)cc2c3c(ncn3C)c(Nc3cc(C)n(C)n3)nc21 (library stock concentration (final ~1000-fold dilution): 10 mM),NF-kB SEAP reporter activity,RAW-Dual [2]; agonist: LPS (TLR4) 0.1 ug/mL,1.99
same,NF-kB SEAP reporter activity,RAW-Dual [2]; [6],1.13
same,NF-kB SEAP reporter activity,RAW-Dual [2]; [7],0.888
same,NF-kB SEAP reporter activity,RAW-Dual [2]; [8],0.841
COc1cccc2oc(-c3ccccc3)cc(=O)c12 (library stock concentration (final ~1000-fold dilution): 10 mM),NF-kB SEAP reporter activity,RAW-Dual [2]; agonist: LPS (TLR4) 0.1 ug/mL,1.04
same,NF-kB SEAP reporter activity,RAW-Dual [2]; [6],1.24
same,NF-kB SEAP reporter activity,RAW-Dual [2]; [7],1.13
same,NF-kB SEAP reporter activity,RAW-Dual [2]; [8],0.887
COc1cccc2oc(-c3ccccc3)cc(=O)c12,NF-kB SEAP reporter activity,RAW-Dual [1]; [5],1.03
CC(C)c1nc(CN(C)C(=O)NC(CCN2CCOCC2)C(=O)NC(CCC(Cc2ccccc2)NC(=O)OCc2cncs2)Cc2ccccc2)cs1 (stereo unspecified),NF-kB SEAP reporter activity,RAW-Dual [1]; [4],1.11
same,NF-kB SEAP reporter activity,RAW-Dual [1]; [5],0.986
CC(C)c1nc(CN(C)C(=O)NC(CCN2CCOCC2)C(=O)NC(CCC(Cc2ccccc2)NC(=O)OCc2cncs2)Cc2ccccc2)cs1 (stereo unspecified) (library stock concentration (final ~1000-fold dilution): 10 mM),NF-kB SEAP reporter activity,RAW-Dual [2]; agonist: LPS (TLR4) 0.1 ug/mL,0.904
same,NF-kB SEAP reporter activity,RAW-Dual [2]; [6],1.24
same,NF-kB SEAP reporter activity,RAW-Dual [2]; [7],0.65
same,NF-kB SEAP reporter activity,RAW-Dual [2]; [8],0.778
COC1/C=C/OC2(C)Oc3c(C)c(O)c4c(O)c(c(/C=N/N5CCN(C)CC5)c(O)c4c3C2=O)NC(=O)/C(C)=C/C=C/C(C)C(O)C(C)C(O)C(C)C(OC(C)=O)C1C (stereo unspecified),NF-kB SEAP reporter activity,RAW-Dual [1]; [4],0.886
same,NF-kB SEAP reporter activity,RAW-Dual [1]; [5],0.877
COC1/C=C/OC2(C)Oc3c(C)c(O)c4c(O)c(c(/C=N/N5CCN(C)CC5)c(O)c4c3C2=O)NC(=O)/C(C)=C/C=C/C(C)C(O)C(C)C(O)C(C)C(OC(C)=O)C1C (stereo unspecified) (library stock concentration (final ~1000-fold dilution): 10 mM),NF-kB SEAP reporter activity,RAW-Dual [2]; agonist: LPS (TLR4) 0.1 ug/mL,0.987
same,NF-kB SEAP reporter activity,RAW-Dual [2]; [6],0.979
same,NF-kB SEAP reporter activity,RAW-Dual [2]; [7],0.906
same,NF-kB SEAP reporter activity,RAW-Dual [2]; [8],0.892
COS(=O)(=O)[O-].COc1cccc2c1nc1ccccc1[n+]2C,NF-kB SEAP reporter activity,RAW-Dual [1]; [9],0.838
same,NF-kB SEAP reporter activity,RAW-Dual [1]; [10],0.899
COS(=O)(=O)[O-].COc1cccc2c1nc1ccccc1[n+]2C (library stock concentration (final ~1000-fold dilution): 10 mM),NF-kB SEAP reporter activity,RAW-Dual [3]; agonist: LPS (TLR4) 0.1 ug/mL,0.473
same,NF-kB SEAP reporter activity,RAW-Dual [3]; [6],0.781
same,NF-kB SEAP reporter activity,RAW-Dual [3]; [7],0.271
same,NF-kB SEAP reporter activity,RAW-Dual [3]; [8],0.272
CC(C)C1C(=O)NC(CCCNC(=N)N)C(=O)NCC(=O)NC(CC(=O)O)C(=O)NC(Cc2ccccc2)C(=O)N1C.O=C(O)C(F)(F)F (stereo unspecified) (library stock concentration (final ~1000-fold dilution): 10 mM),NF-kB SEAP reporter activity,RAW-Dual [2]; agonist: LPS (TLR4) 0.1 ug/mL,0.99
same,NF-kB SEAP reporter activity,RAW-Dual [2]; [6],1.01
same,NF-kB SEAP reporter activity,RAW-Dual [2]; [7],0.985
same,NF-kB SEAP reporter activity,RAW-Dual [2]; [8],0.921
CC(C)C1C(=O)NC(CCCNC(=N)N)C(=O)NCC(=O)NC(CC(=O)O)C(=O)NC(Cc2ccccc2)C(=O)N1C.O=C(O)C(F)(F)F (stereo unspecified),NF-kB SEAP reporter activity,RAW-Dual [1]; [4],0.977
same,NF-kB SEAP reporter activity,RAW-Dual [1]; [5],1.11
